Our source for the binding signal (log2 normalized fluorescence) values is paper PMC5515408.

Some of the results follow. At the low end of the ranking the order means little.

For the experiment, the target named is MAX:MAX (p21) (UniProt P61244-2). The experiment in a line: protein-binding microarray (anti-MAX antibody). The settings on record: PBM: 15 mM Tris-HCl pH 7.5, 100 mM KCl, 0.075% NP40, 7.5 mM beta-mercaptoethanol, 375 ng/ul BSA, 8 ng/ul poly(dA-dT):(dA-dT), 550 ng complex, 60 min, room …; high values mean tight binding; double strand, one strand shown; sequences stand for … in CCGGC…TTAATAGCTAAGATTACTATATCGACG
In turn, TGATTCCCGGTA yielded a binding signal (log2 normalized fluorescence) of -0.853. On to TGACCTCATGTA, for which the binding signal (log2 normalized fluorescence) was found to be 2.73. TGACCGTGGGTA came in with a binding signal (log2 normalized fluorescence) of 0.604. The sequence TGACGACTGGTA returned a binding signal (log2 normalized fluorescence) of -0.433. Take TGACGTGATGTA: the binding signal (log2 normalized fluorescence) is 1.63. The figure for TGATTCCCAGTA is -0.997; for TGATCCAGTGTA it is -0.696.

TGACATCGCGTA yielded a binding signal (log2 normalized fluorescence) of 0.0881.

In turn, TGATTTTCCGTA showed a binding signal (log2 normalized fluorescence) of -1.03.

TGAGATGAAGTA had a binding signal (log2 normalized fluorescence) of -0.933. TGAGTGTAAGTA came in with a binding signal (log2 normalized fluorescence) of -0.22. The figure for TGAAACCTAGTA is -0.855; for GGACACGTGGAG it is 3.2. The sequence TGAATTACGGTA came in with a binding signal (log2 normalized fluorescence) of -0.663. Sequence TGATTACCTGTA came in with a binding signal (log2 normalized fluorescence) of -0.642.

For the sequence TGAGACGTTGTA, the binding signal (log2 normalized fluorescence) is -0.362.

TGAGTCTCGGTA: the binding signal (log2 normalized fluorescence) is -1.16. TGAGTTAGTGTA gave a binding signal (log2 normalized fluorescence) of -1.05. In the case of TGAAATATCGTA, the binding signal (log2 normalized fluorescence) was -0.654. On to TGAAGATTCGTA, for which the binding signal (log2 normalized fluorescence) is -1.01. The figure for TGATCGCTAGTA is -0.865; for TGGCACTTTGTA it is -0.541. As for TGATTAGGTGTA, the binding signal (log2 normalized fluorescence) was -1.08. As for TGAGATTTTGTA, the binding signal (log2 normalized fluorescence) is -1.47.

Sequence TGATGGTAAGTA had a binding signal (log2 normalized fluorescence) of 0.345. Sequence TGATTATCGGTA came in with a binding signal (log2 normalized fluorescence) of -1.33. Take TGATTGCTTGTA: the binding signal (log2 normalized fluorescence) is -0.593. TGATGGTCTGTA: the binding signal (log2 normalized fluorescence) is 0.348. Sequence TGATGGGACGTA displayed a binding signal (log2 normalized fluorescence) of 0.101. As to TGAGGTCCTGTA, the binding signal (log2 normalized fluorescence) is -0.622.

For TGAGAAGCTGTA, the binding signal (log2 normalized fluorescence) is -0.843. TAAGACGTGGTA showed a binding signal (log2 normalized fluorescence) of 1.75.

On to TGAATGCTCGTA, for which the binding signal (log2 normalized fluorescence) came out at 0.339. For TGAAAGCCAGTA, the binding signal (log2 normalized fluorescence) is -0.847.

Regarding TGATATGGGGTA, the binding signal (log2 normalized fluorescence) was found to be 0.0377. TGACGGTTGGTA gave a binding signal (log2 normalized fluorescence) of -0.29. Take TGAGCTCGAGTA: the binding signal (log2 normalized fluorescence) is -0.568.

For TGAACCACGGTA, the binding signal (log2 normalized fluorescence) is 0.954. The figure for TGAGCGGTGGTA is -0.339.

TGACTTCTAGTA displayed a binding signal (log2 normalized fluorescence) of -1.1.

In the case of TGACACGAAATA, the binding signal (log2 normalized fluorescence) amounted to 0.577. In the case of TGAACGCCGGTA, the binding signal (log2 normalized fluorescence) was -0.00954. Consider TGACTAATGGTA, for which the binding signal (log2 normalized fluorescence) was -0.355. On to TGAAGACTGGTA, for which the binding signal (log2 normalized fluorescence) was -0.549. With TGATACTGCGTA, the binding signal (log2 normalized fluorescence) is -0.682. Take TGAATACCAGTA: the binding signal (log2 normalized fluorescence) was -0.888. Sequence TGATCGTCCGTA had a binding signal (log2 normalized fluorescence) of -0.779.

TGAAGGCTGGTA registered a binding signal (log2 normalized fluorescence) of -0.432. With TGATTTGGTGTA, the binding signal (log2 normalized fluorescence) is -1.16. Turning to TGAGAACATGTA, the binding signal (log2 normalized fluorescence) turned out to be 0.942. To TGAAAGAGGGTA belongs -0.622; to TGACACGTGATT, 3.22; to TGACTACCAGTA, -0.616. Regarding TGAACAGGGGTA, the binding signal (log2 normalized fluorescence) was 0.31.

TGATAGCCCGTA showed a binding signal (log2 normalized fluorescence) of -1.08. As for TGACCCAGCGTA, the binding signal (log2 normalized fluorescence) was -0.435.

AAGGGTTTTCTA returned a binding signal (log2 normalized fluorescence) of -0.273. For the sequence TGAACCGTGGTC, the binding signal (log2 normalized fluorescence) came out at 1.31.

With TGATTAGATGTA, the binding signal (log2 normalized fluorescence) is -1.05.

Regarding CTTACCACCCAG, the binding signal (log2 normalized fluorescence) was 0.89. Sequence TGACATAGAGTA came in with a binding signal (log2 normalized fluorescence) of -0.379.

In turn, TGACTATTAGTA displayed a binding signal (log2 normalized fluorescence) of -0.887.

TGAAACGTTGTA gave a binding signal (log2 normalized fluorescence) of 0.655. To TGATTGTTGGTA belongs -0.855; to TCGGACGTGGTA, 1.17; to TGATAACGAGTA, -0.258.

As for TGATGGCACGTA, the binding signal (log2 normalized fluorescence) worked out at 1.08. TGAACCCCCGTA came in with a binding signal (log2 normalized fluorescence) of -0.133. On to TGAACCACAGTA, for which the binding signal (log2 normalized fluorescence) was -0.226. The figure for TGATACTGTGTA is -0.658; for CCGCTTAATTTC it is -1.02; for TGAGGCCCGGTA it is -1.01. The figure for TGATACGCCGTA is -0.497. In turn, TGACCGCGCGTA displayed a binding signal (log2 normalized fluorescence) of 1.24.

TGACTTCCTGTA showed a binding signal (log2 normalized fluorescence) of -0.849.

TGACGATGCGTA registered a binding signal (log2 normalized fluorescence) of 0.115.

As for TGAATTCTAGTA, the binding signal (log2 normalized fluorescence) is -0.709.

Consider TGAATAAAGGTA, for which the binding signal (log2 normalized fluorescence) is -0.47. As to TTAAAAGTGGTA, the binding signal (log2 normalized fluorescence) is -0.41.

In turn, TTACACGTGATA yielded a binding signal (log2 normalized fluorescence) of 3.31.

TGAAAACCGGTA showed a binding signal (log2 normalized fluorescence) of -0.585. TGAGAGCGCGTA returned a binding signal (log2 normalized fluorescence) of -0.456. In turn, TGACCCGGGGTA displayed a binding signal (log2 normalized fluorescence) of 0.0808. For the sequence TGACGCGTGGTG, the binding signal (log2 normalized fluorescence) is 3.08. Consider CCCCGTGGTTAC, for which the binding signal (log2 normalized fluorescence) is 2.98. The sequence TGACGTCAAGTA returned a binding signal (log2 normalized fluorescence) of -0.203. In turn, TGAGAGCCGGTA yielded a binding signal (log2 normalized fluorescence) of -0.711. As for TGAGGGACAGTA, the binding signal (log2 normalized fluorescence) is -0.217. To TGAAGTGCCGTA belongs -0.25; to TGACGCCCCGTA, -0.228. As to TGAATCGGCGTA, the binding signal (log2 normalized fluorescence) is -0.762. The figure for TGAGGACCAGTA is -0.622. TGAGGCATGGTA returned a binding signal (log2 normalized fluorescence) of 2.39. TGAGACATCGTA had a binding signal (log2 normalized fluorescence) of -0.642. Regarding TGATGAGAAGTA, the binding signal (log2 normalized fluorescence) is -0.622.

As to TGAGGAATAGTA, the binding signal (log2 normalized fluorescence) was -1.02. The sequence TGAGTTCGTGTA came in with a binding signal (log2 normalized fluorescence) of -0.151. To TGATTTTGGGTA belongs -1.36; to TGAGAGCAAGTA, -0.426; to TGAAGCCTTGTA, -0.759. AAGTAGCGCACA: the binding signal (log2 normalized fluorescence) was 1.4. For AGGGTGTACTGG, the binding signal (log2 normalized fluorescence) worked out at 1.66. In turn, TGAGCATACGTA registered a binding signal (log2 normalized fluorescence) of 0.19.

With TGAGCAGAGGTA, the binding signal (log2 normalized fluorescence) is -0.746. Consider TGACAAGGGGTA, for which the binding signal (log2 normalized fluorescence) was found to be 0.333. The figure for TGACAAGCGGGA is -0.154; for TGATAACCTGTA it is -0.152.

As to TGAAACTGCGTA, the binding signal (log2 normalized fluorescence) is -0.521. TGAAATTATGTA showed a binding signal (log2 normalized fluorescence) of -1.08. TGAGAAGAAGTA returned a binding signal (log2 normalized fluorescence) of -1.09. Turning to TGATGGAGGGTA, the binding signal (log2 normalized fluorescence) was -0.0145. The sequence TGACGTGGAGTA registered a binding signal (log2 normalized fluorescence) of 1.1.

The sequence TGATGTTTCGTA showed a binding signal (log2 normalized fluorescence) of -0.105. Consider TGAATGCGTGTA, for which the binding signal (log2 normalized fluorescence) is 1.68.

TGAGGTAAAGTA: the binding signal (log2 normalized fluorescence) was -0.641. Sequence TGACCTAGAGTA returned a binding signal (log2 normalized fluorescence) of -1.04. TGACACGTTTCA yielded a binding signal (log2 normalized fluorescence) of 2.68. TGACCCAGAGTA: the binding signal (log2 normalized fluorescence) was -0.816. In the case of TGAATCGGTGTA, the binding signal (log2 normalized fluorescence) is -0.939. To TGATCGCTTGTA belongs -0.757.

Take TGATCTAGGGTA: the binding signal (log2 normalized fluorescence) is -1.15.

TGACTTATAGTA returned a binding signal (log2 normalized fluorescence) of -0.852. As for TGACACAAGGTA, the binding signal (log2 normalized fluorescence) amounted to 1.62. TGACCTCTTGTA displayed a binding signal (log2 normalized fluorescence) of -0.541. The figure for TGAAGTCCGGTA is -0.959; for TGAGAGTGCGTA it is 0.05. TGATGGGCGGTA returned a binding signal (log2 normalized fluorescence) of 0.357. For the sequence TGAGTTCATGTA, the binding signal (log2 normalized fluorescence) is -0.156. Turning to TGACATCTCGTA, the binding signal (log2 normalized fluorescence) is -0.176. To TGATGAAGCGTA belongs -0.5. To TCCTACGTGGTA belongs 1.8; to TGAGACTTTGTA, -0.891; to TGAAGGACAGTA, -0.583. Turning to TGAATTACCGTA, the binding signal (log2 normalized fluorescence) is -0.746. The figure for TGAGTCTGGGTA is -1.24; for TGACATGGTGTA it is 1.41; for TGAAACCGTGTA it is 0.451.
